The text below walks through data of publication PMC12820563, “FoxP3 forms a head-to-head dimer in vivo and stabilizes its multimerization on adjacent microsatellites”.

This is one part of the list.

For the assay, the target named is T1, MBP-FoxP1dN (Mus musculus, UniProt P58462 326-579).
T1 sequence: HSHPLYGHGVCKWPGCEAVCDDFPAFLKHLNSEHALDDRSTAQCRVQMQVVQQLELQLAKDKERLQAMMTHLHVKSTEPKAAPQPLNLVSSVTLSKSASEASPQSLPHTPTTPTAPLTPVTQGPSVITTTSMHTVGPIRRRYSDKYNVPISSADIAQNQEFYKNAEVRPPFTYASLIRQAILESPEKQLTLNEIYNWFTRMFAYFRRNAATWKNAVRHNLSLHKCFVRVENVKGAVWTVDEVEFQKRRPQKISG
Kind of assay: PD-seq (MBP pull-down with sequencing); 20 mM Tris-HCl pH 7.5, 100 mM NaCl, 1.5 mM MgCl2, 0.4 uM protein, 0.1 uM dsDNA library, 30 min, room temperature, amylose pull-down; high values mean tight binding. As to conditions: protein: recombinant; tags: His6-MBP; chain copies: 2; dsDNA, one strand shown. A digest of the protocol:
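Mouse FoxP3 or FoxP1 fragment lacking the N-terminus, His6-MBP-tagged and expressed in E. coli, was incubated at 0.4 µM with 0.1 µM Klenow-filled degenerate double-stranded DNA library for 30 min at room temperature in Tris pH 7.5 buffer with NaCl and MgCl2. Complexes captured on amylose resin were washed three times and their DNA sequenced on Illumina. Binding is reads-per-million enrichment of pull-down over input, replicates pooled.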
Consider “GATGATTGTTCTCCCAGCTGATGAATTAAGGCCGTCGAGTAAACAAATTTTCCTAATCTTTCTGTTCAAGCGCCATCTAC”, for which the binding signal was 0.833 RPM ratio (pull-down/input). To “GATGATTGTTCTCCCAGCTGATGAATTATGTTATTCGAGTAAACAAATTTTCCTAATCTTTCTGTTCAAGCGCCATCTAC” belongs 2.18 RPM ratio (pull-down/input); to “GATGATTGTTCTCCCAGCTGATGAATTCTGTTCGTCGAGTAAACAAATTTTCCTAATCTTTCTGTTCAAGCGCCATCTAC”, 0.88 RPM ratio (pull-down/input).

Turning to “GATGATTGTTCTCCCAGCTGATGAATTTGCTAATTCGAGTAAACAAATTTTCCTAATCTTTCTGTTCAAGCGCCATCTAC”, the binding signal was 1.05 RPM ratio (pull-down/input).

Regarding “GATGATTGTTCTCCCAGCTGATGAATTGGACGCATCGAGTAAACAAATTTTCCTAATCTTTCTGTTCAAGCGCCATCTAC”, the binding signal is 1.17 RPM ratio (pull-down/input). For “GATGATTGTTCTCCCAGCTGATGAATTTGCAGAATCGAGTAAACAAATTTTCCTAATCTTTCTGTTCAAGCGCCATCTAC” the value was 1.02 RPM ratio (pull-down/input); for “GATGATTGTTCTCCCAGCTGATGAATTCGACCTGTCGAGTAAACAAATTTTCCTAATCTTTCTGTTCAAGCGCCATCTAC”, 0.713 RPM ratio (pull-down/input); for “GATGATTGTTCTCCCAGCTGATGAATTGTCCGACTCGAGTAAACAAATTTTCCTAATCTTTCTGTTCAAGCGCCATCTAC”, 0.891 RPM ratio (pull-down/input). For “GATGATTGTTCTCCCAGCTGATGAATTTAGGACATCGAGTAAACAAATTTTCCTAATCTTTCTGTTCAAGCGCCATCTAC” the value was 1.1 RPM ratio (pull-down/input). For “GATGATTGTTCTCCCAGCTGATGAATTCTCTTCCTCGAGTAAACAAATTTTCCTAATCTTTCTGTTCAAGCGCCATCTAC”, the binding signal is 0.79 RPM ratio (pull-down/input). For the sequence “GATGATTGTTCTCCCAGCTGATGAATTGCGTCTATCGAGTAAACAAATTTTCCTAATCTTTCTGTTCAAGCGCCATCTAC”, the binding signal is 1.14 RPM ratio (pull-down/input). As to “GATGATTGTTCTCCCAGCTGATGAATTTTGACCGTCGAGTAAACAAATTTTCCTAATCTTTCTGTTCAAGCGCCATCTAC”, the binding signal is 0.879 RPM ratio (pull-down/input). Consider “GATGATTGTTCTCCCAGCTGATGAATTAAACGGCTCGAGTAAACAAATTTTCCTAATCTTTCTGTTCAAGCGCCATCTAC”, for which the binding signal is 0.714 RPM ratio (pull-down/input). Regarding “GATGATTGTTCTCCCAGCTGATGAATTATATAACTCGAGTAAACAAATTTTCCTAATCTTTCTGTTCAAGCGCCATCTAC”, the binding signal was 1.05 RPM ratio (pull-down/input). To “GATGATTGTTCTCCCAGCTGATGAATTATACGATTCGAGTAAACAAATTTTCCTAATCTTTCTGTTCAAGCGCCATCTAC” belongs 0.976 RPM ratio (pull-down/input).

With “GATGATTGTTCTCCCAGCTGATGAATTTCCTTGGTCGAGTAAACAAATTTTCCTAATCTTTCTGTTCAAGCGCCATCTAC”, the binding signal was 0.824 RPM ratio (pull-down/input). “GATGATTGTTCTCCCAGCTGATGAATTTATAAAATCGAGTAAACAAATTTTCCTAATCTTTCTGTTCAAGCGCCATCTAC”: the binding signal is 1.33 RPM ratio (pull-down/input).

For “GATGATTGTTCTCCCAGCTGATGAATTCCCGTGGTCGAGTAAACAAATTTTCCTAATCTTTCTGTTCAAGCGCCATCTAC”, the binding signal was 0.811 RPM ratio (pull-down/input). With “GATGATTGTTCTCCCAGCTGATGAATTTATGAGTTCGAGTAAACAAATTTTCCTAATCTTTCTGTTCAAGCGCCATCTAC”, the binding signal was 1.23 RPM ratio (pull-down/input).

For “GATGATTGTTCTCCCAGCTGATGAATTGTTCCGCTCGAGTAAACAAATTTTCCTAATCTTTCTGTTCAAGCGCCATCTAC”, the binding signal was 0.966 RPM ratio (pull-down/input). For “GATGATTGTTCTCCCAGCTGATGAATTATTCGATTCGAGTAAACAAATTTTCCTAATCTTTCTGTTCAAGCGCCATCTAC”, the binding signal is 1.05 RPM ratio (pull-down/input). With “GATGATTGTTCTCCCAGCTGATGAATTGCGCCCGTCGAGTAAACAAATTTTCCTAATCTTTCTGTTCAAGCGCCATCTAC”, the binding signal is 1.02 RPM ratio (pull-down/input).

On to “GATGATTGTTCTCCCAGCTGATGAATTCAACTCGTCGAGTAAACAAATTTTCCTAATCTTTCTGTTCAAGCGCCATCTAC”, for which the binding signal is 0.869 RPM ratio (pull-down/input). To “GATGATTGTTCTCCCAGCTGATGAATTGCGAAAATCGAGTAAACAAATTTTCCTAATCTTTCTGTTCAAGCGCCATCTAC” belongs 1.24 RPM ratio (pull-down/input); to “GATGATTGTTCTCCCAGCTGATGAATTTTTTAAATCGAGTAAACAAATTTTCCTAATCTTTCTGTTCAAGCGCCATCTAC”, 1.07 RPM ratio (pull-down/input); to “GATGATTGTTCTCCCAGCTGATGAATTCCCATAGTCGAGTAAACAAATTTTCCTAATCTTTCTGTTCAAGCGCCATCTAC”, 0.776 RPM ratio (pull-down/input). To “GATGATTGTTCTCCCAGCTGATGAATTGGACATATCGAGTAAACAAATTTTCCTAATCTTTCTGTTCAAGCGCCATCTAC” belongs 0.979 RPM ratio (pull-down/input); to “GATGATTGTTCTCCCAGCTGATGAATTACCTTATTCGAGTAAACAAATTTTCCTAATCTTTCTGTTCAAGCGCCATCTAC”, 1.03 RPM ratio (pull-down/input).

As to “GATGATTGTTCTCCCAGCTGATGAATTGGGATAGTCGAGTAAACAAATTTTCCTAATCTTTCTGTTCAAGCGCCATCTAC”, the binding signal was 0.897 RPM ratio (pull-down/input).

Take “GATGATTGTTCTCCCAGCTGATGAATTTAGGTCTTCGAGTAAACAAATTTTCCTAATCTTTCTGTTCAAGCGCCATCTAC”: the binding signal was 0.898 RPM ratio (pull-down/input). “GATGATTGTTCTCCCAGCTGATGAATTCAATCACTCGAGTAAACAAATTTTCCTAATCTTTCTGTTCAAGCGCCATCTAC”: the binding signal is 0.898 RPM ratio (pull-down/input).

On to “GATGATTGTTCTCCCAGCTGATGAATTCAAGCGGTCGAGTAAACAAATTTTCCTAATCTTTCTGTTCAAGCGCCATCTAC”, for which the binding signal was 0.826 RPM ratio (pull-down/input). With “GATGATTGTTCTCCCAGCTGATGAATTTTCTGCTTCGAGTAAACAAATTTTCCTAATCTTTCTGTTCAAGCGCCATCTAC”, the binding signal is 1 RPM ratio (pull-down/input). As to “GATGATTGTTCTCCCAGCTGATGAATTAGGTCTATCGAGTAAACAAATTTTCCTAATCTTTCTGTTCAAGCGCCATCTAC”, the binding signal was 0.838 RPM ratio (pull-down/input).

For the sequence “GATGATTGTTCTCCCAGCTGATGAATTAATTGTCTCGAGTAAACAAATTTTCCTAATCTTTCTGTTCAAGCGCCATCTAC”, the binding signal was 1.05 RPM ratio (pull-down/input). With “GATGATTGTTCTCCCAGCTGATGAATTGTCTCGGTCGAGTAAACAAATTTTCCTAATCTTTCTGTTCAAGCGCCATCTAC”, the binding signal is 0.95 RPM ratio (pull-down/input). Turning to “GATGATTGTTCTCCCAGCTGATGAATTTGATTTGTCGAGTAAACAAATTTTCCTAATCTTTCTGTTCAAGCGCCATCTAC”, the binding signal was 1.11 RPM ratio (pull-down/input).

Consider “GATGATTGTTCTCCCAGCTGATGAATTGGGGGCCTCGAGTAAACAAATTTTCCTAATCTTTCTGTTCAAGCGCCATCTAC”, for which the binding signal was 0.781 RPM ratio (pull-down/input). To “GATGATTGTTCTCCCAGCTGATGAATTACTCAAGTCGAGTAAACAAATTTTCCTAATCTTTCTGTTCAAGCGCCATCTAC” belongs 1.02 RPM ratio (pull-down/input); to “GATGATTGTTCTCCCAGCTGATGAATTTGCCTTATCGAGTAAACAAATTTTCCTAATCTTTCTGTTCAAGCGCCATCTAC”, 1.05 RPM ratio (pull-down/input).
